{"source": "PubChem BioAssay AID485360", "about": "(National Center for Advancing Translational Sciences (NCATS), 2010)", "note": "Screen size: about 230,000 compounds; about 1,500 (0.65%) were called active. The shares of active, inactive and inconclusive entries below differ from those in the screen. The call rests on the fitted dose curve; in most records, active means well fitted inhibition curve with a large enough effect; inconclusive means small, poorly fitted or top-dose-only effect; inactive means no such curve, though single readings can be large or run the other way. Where the call is inconclusive, the potency comes from a doubtful curve fit. On the % scale 0 is the no-effect control and ±100 the full control effect; potency means the concentration at half of the fitted maximal effect; tags describe the fitted curve by direction and shape."}
{"target": "Lethal(3)malignant brain tumor-like protein 1 (Homo sapiens) (UniProt Q9Y468)", "sequence (Q9Y468 whole entry, looked up)": "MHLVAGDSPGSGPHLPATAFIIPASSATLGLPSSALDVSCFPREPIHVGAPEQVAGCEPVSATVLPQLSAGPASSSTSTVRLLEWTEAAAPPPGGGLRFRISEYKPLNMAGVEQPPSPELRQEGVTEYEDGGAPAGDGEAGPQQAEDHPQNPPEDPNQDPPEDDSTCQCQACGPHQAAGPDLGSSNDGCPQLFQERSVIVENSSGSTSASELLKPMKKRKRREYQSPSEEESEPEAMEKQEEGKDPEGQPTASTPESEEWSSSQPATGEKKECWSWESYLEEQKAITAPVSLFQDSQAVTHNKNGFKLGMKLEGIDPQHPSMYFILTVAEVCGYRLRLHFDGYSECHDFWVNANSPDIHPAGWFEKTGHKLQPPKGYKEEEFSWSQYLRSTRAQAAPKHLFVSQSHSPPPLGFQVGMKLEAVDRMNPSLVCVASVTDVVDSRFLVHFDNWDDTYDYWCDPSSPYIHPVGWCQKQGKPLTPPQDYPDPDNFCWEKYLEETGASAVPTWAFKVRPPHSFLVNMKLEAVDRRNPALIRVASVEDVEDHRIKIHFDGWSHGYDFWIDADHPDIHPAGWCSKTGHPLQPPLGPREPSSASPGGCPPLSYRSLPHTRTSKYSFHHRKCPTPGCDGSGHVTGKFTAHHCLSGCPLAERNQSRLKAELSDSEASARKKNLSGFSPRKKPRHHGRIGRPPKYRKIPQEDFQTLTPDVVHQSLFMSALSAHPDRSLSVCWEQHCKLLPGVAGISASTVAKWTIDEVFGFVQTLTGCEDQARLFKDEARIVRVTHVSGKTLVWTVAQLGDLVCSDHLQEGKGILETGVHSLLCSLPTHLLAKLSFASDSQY", "experiment": "qHTS Assay for the Inhibitors of L3MBTL1; further: nearly all actives have a fitted effect of over 60% in size", "settings": "AlphaScreen L3MBTL1–H3K9me1 peptide binding; activity, negative = inhibition: at 57.1 µM (top of the series)", "procedure,_shortened": "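Read-out is AlphaScreen signal from streptavidin donor and nickel chelate acceptor beads (10 ug/mL final each) bridging L3MBTL1 (50 nM) and biotinylated K9-monomethylated H3(1-15) peptide (75 nM), after 30 min compound exposure at room temperature.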"}
{"smiles": "Cc1ccc(-n2cccc2/C=C2\\C(=N)N3N=C(c4ccco4)SC3=NC2=O)cc1", "Potency": "inconclusive: 12.6 µM [inhibitor, single point]"}
{"smiles": "CC1=CCC(C(=O)O)C(C(=O)Nc2ccc(-c3nc4ccc(C)cc4s3)cc2)C1", "note": "(stereo not drawn)", "Potency": "inconclusive: 25.1 µM [inhibitor, single point]"}
{"smiles": "O=C(Cc1cccs1)OCC(=O)c1ccco1", "Potency": "inconclusive: 39.8 µM [inhibitor, single point]"}
{"smiles": "C/C(=N\\NC(=O)OC(C)(C)C)c1ccc(-n2ccnc2)cc1", "Potency": "inconclusive: 7.08 µM [inhibitor, single point]"}
{"smiles": "Cc1ccc(NC(=O)Cn2ncc(Cl)c(Cl)c2=O)cc1S(=O)(=O)N1CCCCC1", "Potency": "inconclusive: 28.2 µM [inhibitor, single point]"}
{"smiles": "CCOc1cccc(C=NNc2ccc(S(=O)(=O)Nc3ccccc3C(=O)O)cc2[N+](=O)[O-])c1O", "Potency": "inconclusive: 11.2 µM [inhibitor, partial curve]"}
{"smiles": "O=C(COC(=O)c1ccc(Cl)cc1O)Nc1cccnc1Cl", "activity, negative = inhibition": "inactive: -2.02%"}
{"smiles": "O=C(Nc1nnc(Cc2ccc(Cl)cc2)s1)C1CCCO1", "note": "(stereo not drawn)", "activity, negative = inhibition": "inactive: -1.8%"}
{"smiles": "CC(C)(C)c1ccc(C(=S)N2CCN(c3ccccc3)CC2)cc1", "Potency": "inconclusive: 15.8 µM [inhibitor, partial curve]"}
{"smiles": "CC1(C)C(=O)Nc2ccccc2N1C(=O)COC(=O)C12CC3CC(CC(O)(C3)C1)C2", "Potency": "inconclusive: 25.1 µM [inhibitor, single point]"}
{"smiles": "Cc1ccc(NC(=O)CNC2CCS(=O)(=O)C2)cc1C", "note": "(stereo not drawn)", "Potency": "inconclusive: 0.141 µM [inhibitor, full curve, poor fit]"}
{"smiles": "CC(C)C(=O)N1CCN(c2nc(-c3ccc(Cl)cc3)cs2)CC1", "activity, negative = inhibition": "inactive: 7.73%"}
{"smiles": "CCCN(C(=O)c1cc2c(s1)CCC2)c1c(N)n(Cc2ccccc2)c(=O)[nH]c1=O", "Potency": "active: 17.8 µM"}
{"smiles": "COc1ccc(C(=O)OCc2nc(N)nc(Nc3ccccc3C)n2)cc1OC", "Potency": "inconclusive: 0.1 µM [inhibitor, full curve, poor fit]"}
{"smiles": "COc1cc(/C=N/NS(=O)(=O)c2ccc(C(C)(C)C)cc2)cc([N+](=O)[O-])c1O", "activity, negative = inhibition": "inactive: -24.4%"}
{"smiles": "Cc1cc(N2C(=O)CC(N3CCN(c4ccc(C(=O)c5cccs5)cc4)CC3)C2=O)no1", "note": "(stereo not drawn)", "Potency": "inconclusive: 6.31 µM [inhibitor, single point]"}
{"smiles": "COc1ccc(-c2nnc(N(C)C(=O)c3ccno3)s2)cc1", "activity, negative = inhibition": "inactive: 26.3%"}
{"smiles": "O=S(=O)(NCc1csc(-c2ccccc2)n1)c1ccc(Cl)s1", "Potency": "inconclusive: 11.2 µM [inhibitor, partial curve, poor fit]"}
{"smiles": "COc1ccc(Nc2nc(N/N=C/c3ccc(N(C)C)cc3)nc(C)c2[N+](=O)[O-])cc1", "Potency": "inconclusive: 39.8 µM [inhibitor, partial curve]"}
{"smiles": "O=C(COC(=O)CNC(=O)c1ccco1)Nc1ncc(Cl)cc1Cl", "Potency": "inconclusive: 35.5 µM [inhibitor, single point]"}
{"smiles": "CCOC(=O)C1CCCN(S(=O)(=O)CCNC(=O)c2ccc3c(c2)OCO3)C1", "note": "(stereo not drawn)", "activity, negative = inhibition": "inactive: 2.39%"}
{"smiles": "COc1ccc(Nc2ccc(S(=O)(=O)N3CCCCCC3)cc2[N+](=O)[O-])cc1", "Potency": "inconclusive: 28.2 µM [inhibitor, partial curve]"}
{"smiles": "COc1cccc(C2C(C#N)=C(N)Oc3c2oc(CO)cc3=O)c1", "note": "(stereo not drawn)", "Potency": "inconclusive: 7.08 µM [inhibitor, single point]"}
{"smiles": "CCOC(=O)c1c(NC(=O)CN2CCCc3ccccc32)sc(C(C)=O)c1C", "Potency": "inconclusive: 0.708 µM [inhibitor, single point]"}
{"smiles": "CCNc1nc(NCC)nc(C(=O)Nc2ccccc2)n1", "Potency": "inconclusive: 35.5 µM [inhibitor, single point]"}
{"smiles": "CCc1noc(C)c1C(=O)N1CCN(S(=O)(=O)c2ccc(C)cc2)CC1", "activity, negative = inhibition": "inactive: 0.2%"}
{"smiles": "O=C1CCCC(NCCCCCCNC2=C([N+](=O)[O-])C(=O)CCC2)=C1[N+](=O)[O-]", "Potency": "inconclusive: 6.31 µM [inhibitor, single point]"}
{"smiles": "COc1ccc2[nH]c(CN3CCC(CO)(CCOc4ccccc4)CC3)c(C)c2c1", "Potency": "inconclusive: 25.1 µM [inhibitor, single point]"}
{"smiles": "Cc1cc(C(=O)N/N=C/c2cc(Br)cc([N+](=O)[O-])c2O)c2ccccc2n1", "Potency": "inconclusive: 25.1 µM [inhibitor, single point]"}
{"smiles": "CC(C)c1ccc(S(=O)(=O)/N=C2/C=C(Sc3ncn[nH]3)C(=O)c3ccccc32)cc1", "Potency": "inconclusive: 11.2 µM [inhibitor, partial curve]"}
{"smiles": "O=C(NC1CCSC1=O)c1ccc(Oc2cccc(C(F)(F)F)c2)nc1", "note": "(stereo not drawn)", "activity, negative = inhibition": "inactive: 0.336%"}
{"smiles": "CO[C@H]1CC[C@@]2(C)[C@@H](CC[C@@H]3[C@@H]2CC[C@@]2(C)[C@H]3C[C@H](C(=O)O)O[C@]23CCCO3)C1", "Potency": "inconclusive: 35.5 µM [inhibitor, single point]"}
{"smiles": "Cc1ccc(C(=O)c2cc(C)sc2N)cc1", "Potency": "inconclusive: 20 µM [inhibitor, single point]"}
{"smiles": "Nc1[nH]n(-c2ccccc2)c(=O)c1N=Nc1ccccc1", "Potency": "inconclusive: 2.82 µM [inhibitor, full curve, poor fit]"}
{"smiles": "CCOc1ccc(C=NNc2ccc(S(=O)(=O)Nc3ccccc3C(=O)O)cc2[N+](=O)[O-])cc1OC", "Potency": "inconclusive: 28.2 µM [inhibitor, single point]"}
{"smiles": "CN1C(=O)/C(=C/c2coc3ccc(O)cc3c2=O)SC1=S", "activity, negative = inhibition": "inactive: -4.83%"}
{"smiles": "COc1ccc(NC(=O)c2cc(-c3ccco3)nc3ccccc23)cc1S(=O)(=O)N1CCOCC1", "activity, negative = inhibition": "inactive: -85.7%"}
{"smiles": "Fc1cccc(F)c1/C=N/Nc1ccccn1", "Potency": "inconclusive: 0.251 µM [inhibitor, full curve, poor fit]"}
{"smiles": "CCOC(=O)NNc1ccc2nonc2c1[N+](=O)[O-]", "Potency": "active: 31.6 µM"}
{"smiles": "O=C(Nc1ccccc1)Nc1ccc(Oc2ncnc3cc(Cl)ccc23)nc1", "activity, negative = inhibition": "inactive: -0.0576%"}
{"smiles": "O=C(O)CNC(=O)CCn1nnc2ccccc2c1=O", "activity, negative = inhibition": "inactive: 2.27%"}
{"smiles": "Cc1nc2ccccn2c1C(=O)NCc1ccc2c(c1)OCO2", "Potency": "inconclusive: 6.31 µM [inhibitor, single point]"}
{"smiles": "COc1ccccc1C(=O)NNC(=O)c1ccccc1Br", "activity, negative = inhibition": "inactive: 3.1% [at 2.29 µM]"}
